Data on 23 compounds can be found in ChEMBL document CHEMBL4888484, “Replenishing the malaria drug discovery pipeline: Screening and hit evaluation of the MMV Hit Generation Library 1 (HGL1) against asexual blood stage Plasmodium falciparum ,using a nano luciferase reporter read-out” (2022).

The campaign covered roughly 150,000 compounds. About 540 (0.36%) showed an effect of 50% or more. This is one part of the list.

The subject of the test is Plasmodium falciparum. As to the kind of experiment: Primary screen in NF54 nanoGlo assay, in single point, at 2uM, 72h; a lower Z score goes with more inhibition. The class given is functional, Erythrocyte. As to conditions: timepoint 72 hour.
By % Inhibition is commonly meant the drop in the measured response relative to a control, in per cent. As for `C[C@@H](CN(C)Cc1c(Cl)cccc1C(=O)O)c1nccs1`, the “% Inhibition” value is listed as 9% and the Z score was -1.

For `COc1ccc(Nc2nnc(-n3nc(C)cc3C)c3ccccc23)cc1OC`, the “% Inhibition” value was 6% and the Z score is reported as -1.11.

For the compound `Cc1nnc(CN(C)C(=O)Nc2ccc(-c3ccc(OC(C)C)cc3)cc2F)o1`, the “% Inhibition” value is -10% and the Z score came out at 1.51.

Regarding `C[C@H](NC(=O)N(C)Cc1n[nH]c2c1CCC2)c1nncn1C`, the “% Inhibition” value is recorded as 9% and the Z score is on record as -1.18.

On to `OC1CCCC1C1CCCN1c1ccc(Br)cn1` (stereo unspecified), for which the “% Inhibition” value is recorded as -7% and the Z score stood at 0.91.

`CC1CCN(C(=O)[C@H]2CCCN(C(=O)c3nnc(C(=O)Nc4ccc(Cl)cc4)s3)C2)CC1`: the “% Inhibition” value is -25% and the Z score is 2.19.

For `Cc1cc(C(=O)N[C@@H](C)c2ccccc2N(C)C)ns1`, the “% Inhibition” value was -14% and the Z score is recorded as 1.9.

`CCOCc1nc(CCCn2cncn2)n(C(C)(C)C)n1`: the “% Inhibition” value was -10% and the Z score stood at 0.96.

As for `COc1ccc(-c2noc(N(C)CC(=O)Nc3ccc(OC)cc3OC)n2)cc1`, the “% Inhibition” value worked out at 3% and the Z score is on record as -0.53.

Consider `N#CCC1(COC(=O)[C@@H]2COc3ccccc32)CC1`, for which the “% Inhibition” value is recorded as -17% and the Z score stood at 1.98.

Take `C[C@H]1c2cc(Cl)c(Cl)cc2CCN1C(=O)c1c[nH]c(=O)n(C)c1=O`: the “% Inhibition” value is -11% and the Z score was determined as 1.77.

Consider `CC(C)(C)OC(=O)N1CCC2(CC1)N=C(c1cccs1)C(=O)N2Cc1ccccc1`, for which the “% Inhibition” value turned out to be 1% and the Z score is on record as -0.13.

For the compound `COc1ccccc1OCC(=O)c1ccc2c(c1)N([C@@H](C)C(=O)NCc1ccccc1)C(=O)CO2`, the “% Inhibition” value was -10% and the Z score is 2.

`O=C(COCc1ccccc1)N1CCCN(c2ccc3nncn3n2)CC1`: the “% Inhibition” value is -5% and the Z score was 0.66.

Take `Cc1ccsc1CN1CCn2c(nnc2[C@@H]2C[C@@H](O)CN2Cc2cccnc2)C1`: the “% Inhibition” value was 7% and the Z score is recorded as -1.31.

As to `CCN(C)C(=O)c1ccc(-c2ccnn2CC)nc1`, the “% Inhibition” value is on record as -10% and the Z score is 0.89.

As for `COc1cc(-c2ccnc3nc(CCC4CCCC4)nn23)cc(OC)c1OC`, the “% Inhibition” value was 5% and the Z score was -0.69.

Take `Cc1nc(NC(=O)NCCN2CCO[C@@H](C)C2)nn1C`: the “% Inhibition” value was determined as 3% and the Z score was -0.49.

For `Cc1nc2ccccn2c1CN(C)Cc1cnc(C(C)C)nc1`, the “% Inhibition” value is -17% and the Z score amounted to 1.74.

As to `CCN(C(=O)NCc1cccc(N(C)C)n1)[C@H]1CCOC1`, the “% Inhibition” value came out at 8% and the Z score is -1.01.

In the case of `Cn1cc(CN2CCC(C)(C)[C@@H](c3ccccc3)C2)c(C(=O)O)n1`, the “% Inhibition” value is recorded as -8% and the Z score is recorded as 1.1.

As to `CC1CCC(C)N1C(C)C(=O)NCC(CO)Cc1ccccn1` (stereo unspecified), the “% Inhibition” value is 5% and the Z score is listed as -0.58.

`CCn1nccc1-c1cc2ncn(C)c2cn1`: the “% Inhibition” value was -3% and the Z score is given as 0.41.
